# Source: PMC10703884, “Targeting the COMMD4–H2B protein complex in lung cancer” (British Journal of Cancer, 2023)
# By UniProt entry, the sequences of proteins in these tests, tags left out.
# UniProt Q9H0A8: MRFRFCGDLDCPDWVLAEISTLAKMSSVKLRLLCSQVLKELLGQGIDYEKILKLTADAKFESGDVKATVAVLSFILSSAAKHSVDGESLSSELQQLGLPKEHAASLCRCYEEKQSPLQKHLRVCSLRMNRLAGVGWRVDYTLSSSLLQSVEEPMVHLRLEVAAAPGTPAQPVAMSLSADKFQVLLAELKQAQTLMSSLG
# These are yes or no findings as the source states them, for the method shown. For some assays here: In cells and extracts the contact can be indirect. Some binding calls cover weakened binding; strength is not graded here. Where a sequence is shown, tags or fusion partners need not be part of it.
# Key:
# [1] = biological target: T1, FLAG-H2BWT (10-amino acid wild-type H2B peptide with N-terminal FLAG tag and C-terminal nuclear localisation signal); experiment: co-IP; FLAG pull-down from cells treated with control or COMMD4 siRNA and then overexpressing FLAG-H2BWT or FLAG-H2BMUT1, blot for COMMD4
# T1 sequence: SFVNDIFERIAAKRVKLDS
# [2] = biological target: T2, H2BMUT1pep, N-terminal biotin-tagged 10-amino acid mutant H2B peptide; experiment: pull-down; biotin-tagged H2B peptides held on Streptavidin Dynabeads, recombinant GST-COMMD4 pulled down; NP40 buffer, 4 °C, purified system; both purified
# T2 sequence (peptide, biotin on the N-terminus): SFVNDKFERI
# [3] = biological target: T3, H2BWTpep, N-terminal biotin-tagged 10-amino acid wild-type H2B peptide; experiment: as above
# T3 sequence (peptide, biotin on the N-terminus): SFVNDIFERI
# [4] = biological target: T4, FLAG-H2BMUT1 (10-amino acid mutant H2B peptide with N-terminal FLAG tag and C-terminal nuclear localisation signal); experiment: co-IP; FLAG-H2BWT or FLAG-H2BMUT1 immunoprecipitated from HEK293T (anti-FLAG M2 Dynabeads, NP40 buffer, 4 °C), blot for GST-COMMD4 and FLAG; only the binder purified
# T4 sequence: SFVNDKFERIAAKRVKLDS
# [5] = biological target: T1, FLAG-H2BWT (10-amino acid wild-type H2B peptide with N-terminal FLAG tag and C-terminal nuclear localisation signal); experiment: as above
binding [1],binding [2],binding [3],binding [4],binding [5],Substance
binds,–,–,–,–,COMMD4 (endogenous) (from UniProt Q9H0A8 1-199)
–,no binding,binds,no binding,binds,recombinant GST-COMMD4 (from UniProt Q9H0A8 1-199)
